“And” between values parts separate entries of the source, which are not always exact repeats. Identical values can stand only once. About 6,500 (4.3%) of roughly 150,000 compounds were called active. The inconclusive results got no clear call from the source; some entries with a clear call stand among them for comparison. The call rests on the fitted dose curve; in most records, active means well fitted inhibition curve with a large enough effect (not every such curve was filed as active); inconclusive means small, poorly fitted or top-dose-only effect, or another doubt; inactive means no such curve, though single readings can be large or run the other way. Potencies of inconclusive entries are doubtful fits and often do not repeat. Some compounds were tested as several samples or in several runs, with calls that do not always agree.
These compounds were tested against 15-hydroxyprostaglandin dehydrogenase [NAD(+)] (Homo sapiens) (UniProt P15428) (assay: qHTS Assay for Inhibitors of HPGD (15-Hydroxyprostaglandin Dehydrogenase)). Conditions: purified HPGD, NADH fluorescence kinetic, PGE2 substrate; activity change, negative = inhibition: stronger effect = lower value.
Outline: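 20 nM HPGD preincubated 15 min at room temperature with compound in 50 mM Tris-HCl pH 8, 0.01% Tween 20. Started with 1 mM NAD+ and 30 uM prostaglandin E2; NADH fluorescence (360/450 nm) read 5 times over 30-s intervals, last minus first.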
On the % scale 0 is the no-effect control and ±100 the full control effect; potency means the concentration at half of the fitted maximal effect; tags describe the fitted curve by direction and shape.

UniProt P15428, sequence (P15428 whole entry, looked up): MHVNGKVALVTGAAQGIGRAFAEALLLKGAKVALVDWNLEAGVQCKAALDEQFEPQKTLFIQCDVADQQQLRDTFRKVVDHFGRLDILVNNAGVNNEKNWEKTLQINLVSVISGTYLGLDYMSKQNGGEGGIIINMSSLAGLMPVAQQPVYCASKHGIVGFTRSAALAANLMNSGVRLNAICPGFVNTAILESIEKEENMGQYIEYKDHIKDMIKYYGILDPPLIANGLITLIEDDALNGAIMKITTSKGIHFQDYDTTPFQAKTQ

Potency, inconclusive:
COc1ncc2nc(-c3ccc(F)cc3)c(=O)n(CCC#N)c2n1 28.2 µM [inhibitor, partial curve], CC(=O)N(CCc1ccccc1C)Cc1cc2cc3c(cc2[nH]c1=O)OCO3 14.1 µM [inhibitor, partial curve], CCCCn1cnc2sc(-c3ccccc3)cc2c1=O 28.2 µM [inhibitor, single point], COc1cc(C)ccc1OCCOc1ccccc1Cl 31.6 µM [inhibitor, single point], Fc1cccc(CO/N=C/c2c(-c3ccccc3)nc3ccc(Cl)cn23)c1 31.6 µM [inhibitor, partial curve], CCCCn1c(-c2csc(CC)c2)n[nH]c1=S 8.91 µM [inhibitor, partial curve], COc1ccccc1-c1nn2c(C3COc4ccccc4O3)nnc2s1 (centres undefined) 15.8 µM [inhibitor, partial curve], COc1cc(-c2cc(OC)c3c(C)oc(C)c3c(=O)c2)ccc1O 31.6 µM [inhibitor, partial curve], O=C(NCC1CCCO1)c1onc(CSc2cccc3ccccc23)c1C(=O)O (centres undefined) 28.2 µM [inhibitor, partial curve], CCOC(=O)c1sc2nc(NC(=O)COc3ccccc3)sc2c1C 28.2 µM [inhibitor, partial curve], CC1CCCCC1NC(=O)c1ccc(CSc2nc3ccncc3[nH]2)cc1 (centres undefined) 35.5 µM [inhibitor, single point], Cc1ccc(-n2nnnc2SCC(=O)N2CC(=O)Nc3ccccc32)cc1 28.2 µM [inhibitor, partial curve], O=C(CN1c2cccc3cccc(c23)S1(=O)=O)Nc1ccc(S(=O)(=O)N2CCOCC2)cc1 22.4 µM [inhibitor, partial curve], CC(C(=O)NCC1CCCO1)N(C(=O)c1snc(C(N)=O)c1N)c1ccccc1 (centres undefined) 28.2 µM [inhibitor, single point], COC(=O)c1ccc(N=C2S/C(=C\c3cc(C)n(-c4cccnc4)c3C)C(=O)N2C)cc1 35.5 µM [inhibitor, single point], Cc1ccc(-c2ccc(C(=O)Nc3ccccc3)o2)c2ccccc12 28.2 µM [inhibitor, partial curve], Cc1ccc(NC(=S)c2ccccc2)cc1 22.4 µM [inhibitor, partial curve], C=CCN(CC=C)Cc1c(C)[nH]c2ccc(C(=O)OCC)cc2c1=O 11.2 µM [inhibitor, partial curve], O=C(OC1CCOC1=O)c1cc(-c2ccccc2)nc2ccccc12 (centres undefined) 20 µM [inhibitor, partial curve], CCOc1ccccc1Oc1ccc(C(F)(F)F)cn1 8.91 µM [inhibitor, single point], COc1cccc(C(=O)N2CCN(c3ncccn3)CC2)c1 31.6 µM [inhibitor, partial curve], CCOC(=O)C1=C(C)NC2=C(C(=O)C(C(=O)OCC)C(c3ccccc3OC)C2)C1c1ccccn1 (centres undefined) 25.1 µM [inhibitor, partial curve], COC(=O)c1ccccc1NC(=O)N1c2ccccc2CC1C (centres undefined) 25.1 µM [inhibitor, partial curve], Cc1nc2nc(SCC(=O)C(C)(C)C)[nH]c2cc1Br 12.6 µM [inhibitor, partial curve], CCCCCc1nc(N)c(C#N)c(-c2ccco2)c1CCCC 35.5 µM [inhibitor, partial curve], COc1ccc(CC(=O)OCC(=O)N2N=C(c3ccccc3)CC2c2ccc(OC)cc2)cc1 (centres undefined) 35.5 µM [inhibitor, single point], O=[N+]([O-])c1ccc(-c2csc3[n+]2CCS3)cc1 35.5 µM [inhibitor, single point], COc1ccc(/C=N/NC(=O)CCn2c3ccccc3c3ccccc32)cc1OC 35.5 µM [inhibitor, partial curve], Cc1ccc2nc(CSc3nc(C)ccc3C#N)[nH]c2c1 12.6 µM [inhibitor, partial curve], O=C(CN1c2cccc3cccc(c23)S1(=O)=O)NCc1ccc2c(c1)OCO2 31.6 µM [inhibitor, partial curve], COc1ccc(-c2nnc(SCC(=O)N3CCCCC3)o2)c(OC)c1 28.2 µM [inhibitor, partial curve], Cc1ccc2[nH]c(-c3cccc(N)c3)cc2c1 25.1 µM [inhibitor, partial curve], Cc1c(Cl)cnc(NC(=O)COC(=O)CCS(=O)(=O)c2ccccc2)c1Cl 25.1 µM [inhibitor, partial curve], COc1cc(OC)c2c(C)c(Cl)c(=O)oc2c1 4.47 µM [inhibitor, partial curve], C=CCn1c(Cc2nc3ccc(Cl)cc3[nH]2)n[nH]c1=S 35.5 µM [inhibitor, single point], CCOc1ccccc1NC(=O)c1nc[nH]c1C(=O)Nc1ccccc1OCC 11.2 µM [inhibitor, partial curve], Cn1c(CSCc2ccc(Cl)cc2)nnc1SCC(=O)Nc1nccs1 14.1 µM [inhibitor, partial curve], CN(C)c1ccc(/C=N/NC(=O)c2ccc(Cn3cc(Br)cn3)o2)cc1 15.8 µM [inhibitor, partial curve], COc1ccc(C(=O)N(O)c2ccccc2)cc1 31.6 µM [inhibitor, single point], O=C(Nc1ccc2ccccc2c1)[C@@H]1C[C@H]1[C@@H](NP(=O)(c1ccccc1)c1ccccc1)c1ccccc1 15.8 µM [inhibitor, partial curve] and 25.1 µM [inhibitor, partial curve, poor fit], CCOC(=O)c1[nH]c2ccc(F)cc2c1NC(=O)CN1CCc2cc(OC)c(OC)cc2C1 15.8 µM [inhibitor, partial curve], O=C(CC(c1ccccc1)c1ccccc1)NCc1cccnc1 17.8 µM [inhibitor, partial curve, poor fit], COc1ccc(C2C(C#N)=C(C)NC3=C2S(=O)(=O)c2ccccc23)cc1 (centres undefined) 28.2 µM [inhibitor, single point]

Potency, active:
O/N=C/c1cc(Br)cc(Br)c1OCc1ccccc1 14.1 µM, Cc1ccc(C(=O)Nc2sc(C)c(C)c2C(=O)c2ccccc2)cc1 20 µM, COc1cc(Br)cc2cc(C(=O)N3CCCCC3C)c(=O)oc12 (centres undefined) 12.6 µM, CC1CCN(c2c(NCc3ccc(C(=O)N4c5ccccc5CC4C)cc3)c(=O)c2=O)CC1 (centres undefined) 12.6 µM, Cc1cc2cc(CNC(=O)CC(C)C)ccc2n1C 2.24 µM, Cc1ccc(NC(=O)c2cc(C)n(-c3cccc(C)c3)c2C)cc1 25.1 µM, Nn1c(Cc2cccc3ccccc23)nnc1SCCOc1ccc(Br)cc1 14.1 µM, C/C(=C\C(=S)Nc1ccccc1)Nc1ccccc1 15.8 µM, CCCCC[C@H](O)/C=C/[C@H]1C=CC(=O)[C@@H]1C/C=C\CCCC(=O)O 22.4 µM, COCCNC(=O)c1ccc2c(c1)NC(=O)CS2 35.5 µM, O=C(CCl)NNc1cccc(Cl)n1 28.2 µM

Activity change, negative = inhibition, inactive:
CCn1c(CNc2ccc(C(=O)O)cc2)nc2ccccc21 -5.81%, CCn1c(O)c(N=NC(=O)CNC(=O)/C=C/c2ccco2)c2ccccc21 -23.2%, O=C(Nc1ccccc1)N(CCCN1CCOCC1)Cc1cccs1 -1.66%, CC(=O)NC(Cc1ccc(F)cc1)C(=O)NC1CCN(c2nnnn2-c2ccccc2)CC1 (centres undefined) -13.1%, O=c1onc2n1-c1cc(Br)ccc1OC2 5.1%, COc1ccc(NC(=O)C23CC4CC(C2)CC(c2ccc(C)cc2)(C4)C3)cc1 -15.4%, COCCNC(=O)c1ccccc1NC(=O)c1ccccc1N(C)S(=O)(=O)c1ccccc1 -0.287%, Cc1cc(S(=O)(=O)N2CCC(N3CCCCC3)CC2)ccc1-n1cnnn1 -12.1%, CC(O)CN1C(=O)C(CC(=O)Nc2ccc(Cl)cc2)SC1=Nc1ccccc1 (centres undefined) -13.6%, Cc1ccc(OCC(=O)N(Cc2ccccc2)C(C)C)c([N+](=O)[O-])n1 3.15%, CC1CCN(c2nc(-c3ccccc3)c(C#N)c(=O)[nH]2)CC1 -19.7%, [Cu].[NH-][C@H](CC(=O)O)C(=O)O.[NH-][C@H](CC(=O)O)C(=O)O -7.19%, CCOC(=O)Cc1csc(/C(=N/O)C(N)=O)n1 -12.3%, CC(=O)Nc1cc(Cl)ccc1OS(=O)(=O)c1ccc(C)cc1 -3.87%, C=C(C)C1CC[C@]2(CO)CC[C@@]3(C)[C@H](CCC4[C@@]5(C)CCC(O)C(C)(C)C5CC[C@@]43C)C12 (some centres undefined) -7.76%

— PubChem BioAssay AID894 (National Center for Advancing Translational Sciences (NCATS), 2007)
